# The list shows a part of the results.
# Columns and labels:
# Assay in all cases: glycan array binding signal (z-score within array); higher = stronger binding
# Conditions in all cases: glycan notation: IUPAC condensed, linker removed
# [1] = target: Neu5Ac(a2-6)GlcNAc(b1-4)GlcNAc
# Summary of the method: (§1)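 From the Consortium for Functional Glycomics database, 3228 arrays were curated, keeping only those whose protein sequence was available. Binding is given as a within-array Z-score averaged across arrays sharing a protein sequence and across linkers. Negative Z-scores can be read as non-binding.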
# [2] = target: Neu5Ac(a2-6)GlcNAc(b1-4)GlcNAc(b1-4)GlcNAc
# Summary of the method: as §1
# Neu5Ac(a2-8)Neu5Ac = target: Neu5Ac(a2-8)Neu5Ac
# Summary of the method: as §1
# [3] = target: Neu5Ac(a2-8)Neu5Ac(a2-3)Gal(b1-3)GalNAc(b1-4)[Neu5Ac(a2-3)]Gal(b1-4)Glc
# Summary of the method: as §1
# [4] = target: Neu5Ac(a2-8)Neu5Ac(a2-3)Gal(b1-3)GalNAc(b1-4)[Neu5Ac(a2-8)Neu5Ac(a2-3)]Gal(b1-4)Glc
# Summary of the method: as §1
# [5] = target: Neu5Ac(a2-8)Neu5Ac(a2-3)Gal(b1-4)Glc
# Summary of the method: as §1
# [6] = target: Neu5Ac(a2-8)Neu5Ac(a2-3)Gal(b1-4)GlcNAc
# Summary of the method: as §1
# [7] = target: Neu5Ac(a2-8)Neu5Ac(a2-3)[Gal(b1-3)GalNAc(b1-4)]Gal(b1-4)Glc
# Summary of the method: as §1
# [8] = target: Neu5Ac(a2-8)Neu5Ac(a2-3)[GalNAc(b1-4)]Gal(b1-4)Glc
# Summary of the method: as §1
# [9] = target: Neu5Ac(a2-8)Neu5Ac(a2-8)Neu5Ac
# Summary of the method: as §1
# [10] = target: Neu5Ac(a2-8)Neu5Ac(a2-8)Neu5Ac(a2-3)Gal(b1-4)Glc
# Summary of the method: as §1
# [11] = target: Neu5Ac(a2-8)Neu5Ac(a2-8)Neu5Ac(a2-3)[Gal(b1-3)GalNAc(b1-4)]Gal(b1-4)Glc
# Summary of the method: as §1
# [12] = target: Neu5Ac(a2-8)Neu5Ac(a2-8)Neu5Ac(a2-3)[GalNAc(b1-4)]Gal(b1-4)Glc
# Summary of the method: as §1
# [13] = target: Neu5Ac(a2-8)Neu5Ac(a2-8)Neu5Ac(a2-8)Neu5Ac(a2-3)[GalNAc(b1-4)]Gal(b1-4)Glc
# Summary of the method: as §1
# [14] = target: Neu5Ac(a2-8)Neu5Gc(a2-3)Gal(b1-4)GlcNAc
# Summary of the method: as §1
# [15] = target: Neu5Ac(b2-6)Gal(b1-4)GlcNAc
# Summary of the method: as §1
# Neu5Ac(b2-6)GalNAc = target: Neu5Ac(b2-6)GalNAc
# Summary of the method: as §1
# [16] = target: Neu5Ac9Ac(a2-3)Gal(b1-3)GlcNAc
# Summary of the method: as §1
# [17] = target: Neu5Ac9Ac(a2-3)Gal(b1-4)GlcNAc
# Summary of the method: as §1
# [18] = target: Neu5Ac9Ac(a2-6)Gal(b1-4)GlcNAc
# Summary of the method: as §1
# [19] = target: Neu5Gc(a2-3)Gal(b1-3)GlcNAc
# Summary of the method: as §1
# [20] = target: Neu5Gc(a2-3)Gal(b1-3)[Fuc(a1-4)]GlcNAc
# Summary of the method: as §1
# Neu5Gc(a2-3)Gal(b1-4)Glc = target: Neu5Gc(a2-3)Gal(b1-4)Glc
# Summary of the method: as §1
# [21] = target: Neu5Gc(a2-3)Gal(b1-4)GlcNAc
# Summary of the method: as §1
# [22] = target: Neu5Gc(a2-3)Gal(b1-4)GlcNAc(b1-3)Gal(b1-4)GlcNAc(b1-2)Man(a1-3)[Neu5Gc(a2-3)Gal(b1-4)GlcNAc(b1-3)Gal(b1-4)GlcNAc(b1-2)Man(a1-6)]Man(b1-4)GlcNAc(b1-4)GlcNAc
# Summary of the method: as §1
# [23] = target: Neu5Gc(a2-3)Gal(b1-4)[Fuc(a1-3)]GlcNAc
# Summary of the method: as §1
# [24] = target: Neu5Gc(a2-6)Gal(b1-4)GlcNAc
# Summary of the method: as §1
# Neu5Gc(a2-6)GalNAc = target: Neu5Gc(a2-6)GalNAc
# Summary of the method: as §1
# [25] = target: Neu5Gc(a2-8)Neu5Ac(a2-3)Gal(b1-4)GlcNAc
# Summary of the method: as §1
# [26] = target: Neu5Gc(a2-8)Neu5Gc(a2-3)Gal(b1-4)GlcNAc
# Summary of the method: as §1
# [27] = target: Neu5Gc(a2-8)Neu5Gc(a2-3)Gal(b1-4)GlcNAc(b1-3)Gal(b1-4)GlcNAc
# Summary of the method: as §1
# [28] = target: Neu5Gc(a2-8)Neu5Gc(a2-6)Gal(b1-4)GlcNAc
# Summary of the method: as §1
# [29] = target: Neu5Gc(b2-6)Gal(b1-4)GlcNAc
# Summary of the method: as §1
binder,measurement,setting,value
"HA-11100 (Pseudomonas aeruginosa), Q02G51_PSEAB (protein) QFNPNEIKISQQGKTTLIDQSTQRAIINWKGFDVSADEAVRFNQPGVTSSTLNRVTAGQESVIAGRISAPGQVIIYNSNGVVFSGSAKVDVGSLITTTANISDEHFRQGKLIFDQPGNPDARIVNDGSISVAEKGLAAFVAPSVANNGVINARLGTVAMAAGNAATIDLYG",glycan array binding signal (z-score),[1],-0.421
same,glycan array binding signal (z-score),[2],-0.181
same,glycan array binding signal (z-score),Neu5Ac(a2-8)Neu5Ac,-0.498
same,glycan array binding signal (z-score),[3],-0.567
same,glycan array binding signal (z-score),[4],-0.444
same,glycan array binding signal (z-score),[5],-0.649
same,glycan array binding signal (z-score),[6],-0.312
same,glycan array binding signal (z-score),[7],0.057
same,glycan array binding signal (z-score),[8],-0.281
same,glycan array binding signal (z-score),[9],-0.333
same,glycan array binding signal (z-score),[10],-0.262
same,glycan array binding signal (z-score),[11],-0.621
same,glycan array binding signal (z-score),[12],-0.213
same,glycan array binding signal (z-score),[13],-0.312
same,glycan array binding signal (z-score),[14],-0.589
same,glycan array binding signal (z-score),[15],-0.196
same,glycan array binding signal (z-score),Neu5Ac(b2-6)GalNAc,-0.167
same,glycan array binding signal (z-score),[16],-0.076
same,glycan array binding signal (z-score),[17],-0.238
same,glycan array binding signal (z-score),[18],-0.383
same,glycan array binding signal (z-score),[19],-0.495
same,glycan array binding signal (z-score),[20],-0.618
same,glycan array binding signal (z-score),Neu5Gc(a2-3)Gal(b1-4)Glc,-0.159
same,glycan array binding signal (z-score),[21],-0.399
same,glycan array binding signal (z-score),[22],-0.535
same,glycan array binding signal (z-score),[23],-0.065
same,glycan array binding signal (z-score),[24],-0.377
same,glycan array binding signal (z-score),Neu5Gc(a2-6)GalNAc,0.697
same,glycan array binding signal (z-score),[25],-0.268
same,glycan array binding signal (z-score),[26],-0.067
same,glycan array binding signal (z-score),[27],-0.07
same,glycan array binding signal (z-score),[28],-0.505
same,glycan array binding signal (z-score),[29],-0.376
